Reference: publication PMC4336329 (PLoS ONE, 2015)
About 14,000 (4.5%) of roughly 310,000 compounds showed an effect of 50% or more. Effects have a minus sign here. The list shows a part of the results.

Each compound was assayed against human ether-à-go-go-related gene (hERG) potassium channel (human, UniProt Q12809) (assay: primary screen, population patch clamp on CHO cells stably expressing hERG).
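Also: peak tail current of the secondary pulse compared with the same well before compound.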

human ether-à-go-go-related gene (hERG) potassium channel, sequence (Q12809 whole entry, looked up): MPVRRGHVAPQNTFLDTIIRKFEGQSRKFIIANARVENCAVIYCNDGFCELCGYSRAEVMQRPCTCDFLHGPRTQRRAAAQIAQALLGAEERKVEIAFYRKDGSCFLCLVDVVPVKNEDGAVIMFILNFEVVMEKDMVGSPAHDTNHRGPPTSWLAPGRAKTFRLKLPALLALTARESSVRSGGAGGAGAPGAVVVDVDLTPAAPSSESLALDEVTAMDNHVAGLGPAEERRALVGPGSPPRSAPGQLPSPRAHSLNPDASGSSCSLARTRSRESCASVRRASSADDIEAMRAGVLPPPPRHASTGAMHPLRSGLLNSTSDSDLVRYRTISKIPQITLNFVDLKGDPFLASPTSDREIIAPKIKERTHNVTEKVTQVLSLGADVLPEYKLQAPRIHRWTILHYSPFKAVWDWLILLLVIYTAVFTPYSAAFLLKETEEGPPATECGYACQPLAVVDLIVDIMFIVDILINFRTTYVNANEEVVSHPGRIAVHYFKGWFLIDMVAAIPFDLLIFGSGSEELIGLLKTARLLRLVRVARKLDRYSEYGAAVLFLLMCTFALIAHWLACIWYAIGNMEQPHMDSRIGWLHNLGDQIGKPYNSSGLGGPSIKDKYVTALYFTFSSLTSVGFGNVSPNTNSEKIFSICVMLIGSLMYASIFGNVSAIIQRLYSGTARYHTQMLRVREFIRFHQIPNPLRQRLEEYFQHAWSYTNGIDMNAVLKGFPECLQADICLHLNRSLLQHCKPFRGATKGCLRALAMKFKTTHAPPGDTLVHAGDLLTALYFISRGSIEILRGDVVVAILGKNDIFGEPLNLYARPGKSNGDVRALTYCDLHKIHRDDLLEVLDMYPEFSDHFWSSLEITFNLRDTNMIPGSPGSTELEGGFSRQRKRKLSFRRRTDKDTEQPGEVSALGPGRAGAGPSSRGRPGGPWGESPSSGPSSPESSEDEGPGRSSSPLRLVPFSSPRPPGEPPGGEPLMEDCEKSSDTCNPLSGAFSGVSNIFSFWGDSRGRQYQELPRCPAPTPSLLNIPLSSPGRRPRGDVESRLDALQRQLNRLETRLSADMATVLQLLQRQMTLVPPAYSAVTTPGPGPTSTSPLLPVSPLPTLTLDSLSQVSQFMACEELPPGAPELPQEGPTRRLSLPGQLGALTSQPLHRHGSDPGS

Row | SMILES | hERG current change (%, negative = inhibition) at 10uM [%]
1 | O=C(NCCc1ccco1)C(=O)NCC1OCCCN1S(=O)(=O)c1cc(F)ccc1F (stereo not shown) | -8.36
2 | O=C(Cn1ncc2c1-c1ccccc1OC2)Nc1ccc(Cl)cn1 | -17.1
3 | COc1ccc(S(=O)(=O)N(C)c2ccc(C(=O)N3CCCC3)cc2)cc1 | 13.4
4 | Cc1nnc(SCC(=O)NC(C)(C)C)n1NCc1ccc(N(C)C)cc1 | 19.1
5 | CCOc1ccc2nc(SCC(=O)NC3CC3)sc2c1 | -0.114
6 | O=C1/C(=C/c2ccc(F)cc2)CCC1C1CCCC1 (stereo not shown) | 3.05
7 | Cc1ccc(S(=O)(=O)C(CCC(=O)c2ccc(Cl)cc2)C(N)=O)cc1 (stereo not shown) | -28.9
8 | Cc1ccc(SCc2cc(=O)[nH]c(Nc3nc(C)c4ccccc4n3)n2)cc1 | -5.24
9 | Cc1ncoc1C(=O)Nc1ccc2c(c1)OCCO2 | -10.1
10 | Cn1cc(CN2CCC(n3nccc3NC(=O)CCCc3ccccc3)CC2)cn1 | 5.95
11 | Cc1cc(C)cc(N)c1 | 5.8
12 | CC1(C)C(=O)Nc2ccccc2N1C(=O)COC(=O)C12CC3CC(CC(O)(C3)C1)C2 | 14.1
13 | CCOc1ccc(-n2c(O)c(N=Nc3c(C)n(C)n(-c4ccccc4)c3=O)c(=O)[nH]c2=O)cc1 | 9.91
14 | CCOC(=O)CCSc1nc(C)cc(C(F)(F)F)c1C#N | 2.56
15 | Cc1ccc2onc(CC(=O)O)c2c1 | 20.7
16 | O=C(NNc1c2ccccc2nc2ccccc12)c1ccccc1O | 15.2
17 | Cc1[nH]c2c(C(F)(F)F)cccc2c1CCN.Cl | -1.49
18 | CC(=O)c1cccc(NC(=O)/C(=C\c2cccnc2)NC(=O)c2ccco2)c1 | -10.6
19 | Cc1ccc2nc(Nc3nc(CSc4nc5ccccc5s4)cc(=O)[nH]3)nc(C)c2c1 | 6.96
20 | CC(=O)CCSc1ncnc2sc(-c3ccccc3)cc12 | 15.5
21 | CC(C)n1cc(/C=C2/SC(=O)N(CC(=O)Nc3ccc4c(c3)OCO4)C2=O)c2ccccc21 | -5.84
22 | Cc1ccc(N2C(=O)c3ccc(C(=O)N4CCN(Cc5ccccc5)CC4)cc3C2=O)cc1 | -19

Row | SMILES | hERG current change (%, negative = inhibition) at 10uM [%]
23 | O=C(CC(c1ccccc1)c1ccccc1)NCc1cccnc1 | -12.7
24 | Cc1ccsc1C(=O)N1CCCC(CCC(=O)NCc2ccc(F)c(F)c2)C1 (stereo not shown) | -15.3
25 | Cc1ccc(-n2c(C)cc(/C([O-])=C(/C(=S)Nc3ccc(F)c(Cl)c3)[n+]3ccccc3)c2C)cc1 | 0.314
26 | COCCN(C(=S)Nc1ccc(Cl)cc1OC)C1CCN(C(C)=O)CC1 | -7.72
27 | Cc1ccc(C(=O)N2CCN(c3ncccn3)CC2)c(C)c1 | 12.1
28 | COc1ccc(NC(=O)Nc2c(C)noc2-c2ccccc2)cc1 | 15.2
29 | O=C(c1cc([N+](=O)[O-])ccc1N1CCCCC1)N1CCc2ccccc21 | -17.3
30 | COCCn1c(SCC(=O)Nc2ccc(F)cc2)nc2c(oc3ccccc32)c1=O | -19.4
31 | COc1ccccc1C(=O)C1CCCN(C(=O)CCc2ccccn2)C1 (stereo not shown) | -9.83
32 | COC(=O)c1ccc(NC(=O)C(=O)N2CCN(C(=S)Nc3cccc(C)c3C)CC2)cc1 | 8.47
33 | Cc1nc2cc(C(=O)NCc3ccc4c(c3)OCO4)ccc2n1-c1ccc(Br)cc1 | -25.6
34 | CC(=O)N1N=C(c2ccco2)CC1c1cc2cc(C)ccc2nc1Cl (stereo not shown) | -16.6
35 | NC(=O)CC(NC(=O)c1ccccc1)c1ccc(NCc2ccc(F)c(F)c2)c([N+](=O)[O-])c1 (stereo not shown) | 4.34
36 | C=CCC(NCc1ccccc1)c1ccco1 (stereo not shown) | -2.74
37 | O=C1CC(NC(=O)C(F)(F)F)c2cc3c(cc21)OCO3 (stereo not shown) | 8.97
38 | Cc1c(NC(=O)Nc2ccccc2)c(=O)n(-c2ccccc2)n1C | 10.1
39 | O=C(c1ccc(=O)n(Cc2ccc(Cl)c(Cl)c2)c1)N1CCOCC1 | -8.43
40 | CCN(Cc1cccs1)C(=O)CN1C(=O)NC(c2ccccc2)(c2ccccc2)C1=O | -32.5
41 | O=C(CCCc1ccccc1)Nc1nnc(C(F)(F)F)s1 | -6.35
42 | CCc1cc(=O)oc2c3c(cc(OCC(=O)NC4CC4)c12)OC(C)(C)CC3 | -13.9
43 | O=C(CSc1ccc(-c2ccccn2)nn1)Nc1ccc(F)c(F)c1 | -36.4
44 | CCOc1ccc2nc(N3CCCC(C(=O)NCCCN4C(C)CCCC4C)C3)sc2c1 (stereo not shown) | -54.7

Row | SMILES | hERG current change (%, negative = inhibition) at 10uM [%]
45 | CCC(=O)NS(=O)(=O)c1cccnc1Nc1ccccc1Cl | 10.4
46 | CCCC(=O)Nc1nnc(-c2ccco2)s1 | 2.55
47 | Cc1csc(SCC(=O)Nc2cc(S(=O)(=O)N(C)C)ccc2C)n1 | 1.81
48 | CC(=O)c1c(C)nc2sc3c(=N)n(N)cnc3c2c1-c1ccc(Cl)cc1 | -14.1
49 | O=C(CN1C(=O)C2CC=CCC2C1=O)Nc1cc(C(F)(F)F)ccc1N1CCCC1 (stereo not shown) | -24.6
50 | CCOC(=O)c1cnc2nc(SCc3ccccc3Cl)[nH]n2c1=O | 16.9
51 | COc1ccc(-c2csc(NC(=O)CSc3nc4ccccc4c(=O)[nH]3)n2)cc1 | 19.6
52 | CC(=O)Nc1ccc(NC(=O)C2CC(=O)N(c3cccc(Cl)c3)C2)cc1 (stereo not shown) | 39.4
53 | Cc1ccc(C)c(Nc2c([N+](=O)[O-])cc(C(=O)N3CC(=O)Nc4ccccc43)cc2[N+](=O)[O-])c1 | 18.2
54 | Cc1oc2cc(O)ccc2c(=O)c1Oc1ccccc1 | -10.2
55 | O[C@@H]([C@H](O)[C@H](O)CBr)[C@H](O)CBr | 18
56 | CC(C)CC(=O)NC(=S)Nc1nc(-c2cccc3ccccc23)cs1 | 12.7
57 | O=C(Nc1ccc(Cn2cccn2)cc1)c1ccc(COc2cccc(Br)c2)cc1 | 9.7
58 | O=C(c1ccccc1F)N1CCN(c2ccc([N+](=O)[O-])c3ncccc23)CC1 | -68.1
59 | CC(C)(/C=N/O)/[N+]([O-])=C/c1ccccc1C(F)(F)F | -7.9
60 | CSc1ccccc1NC(=O)c1ccccc1 | -1.44
61 | CCCOc1ccc(C(C)=O)cc1CSc1nc(O)cc(=O)[nH]1 | 14.4
62 | O=c1[nH]c2ccc(Cl)cc2c(=O)n1Cc1ccco1 | 20.1
63 | O=C(COc1ccccc1)Nc1ccc(Cl)cc1Cl | 12.1
64 | CC(C)N1C(=O)S/C(=C/c2cccnc2)C1=O | 8.88
65 | Cc1nn(C(C)C(=O)Nc2ccc(Cl)cn2)c(C)c1[N+](=O)[O-] (stereo not shown) | -8.62
66 | CN(C)CCCN1C(=O)c2oc3ccc(F)cc3c(=O)c2C1c1cccnc1 (stereo not shown) | 2.36

Row | SMILES | hERG current change (%, negative = inhibition) at 10uM [%]
67 | Cc1ccc(S(=O)(=O)N2CCOCC2)cc1C(=O)Nc1ccccc1N1CCOCC1 | -12.8
68 | NC(=S)N/N=C\c1c2ccccc2cc2ccccc12 | -16.3
69 | CN1C(=O)/C(=C/c2cc(C(C)(C)C)c(O)c(C(C)(C)C)c2)NC1=S | 16.6
70 | Cc1ccc(NC(=O)CSc2nnc(-c3ccco3)c(-c3ccco3)n2)cc1 | -64.9
71 | Cc1ccc(NC(=O)C2CC(=O)NC(N3CCc4ccccc43)=N2)cc1 (stereo not shown) | -7.42
72 | Cc1cc(NN)nc2ccc(Cl)cc12 | -4.71
73 | CCC(CC)C(=O)c1c[nH]c(C(=O)NCc2ccncc2)c1 | 2.49
74 | O=C(N/N=C/c1ccncc1)C1C2CCCCCCC21 (stereo not shown) | -2.08
75 | CCCCNc1c(N)n(CC(C)C)c(=O)[nH]c1=O | -9.14
76 | Cc1nc2ccccn2c1C(=O)NCc1ccc2c(c1)OCO2 | -0.471
77 | Cl.O=C(c1cc(S(=O)(=O)Nc2ccccc2F)c(Cl)cc1Cl)N1CCN(CCO)CC1 | 17.6
78 | O=C1c2ccccc2C(Nc2ccc(S(=O)(=O)N3CCCCC3)cc2)N1c1ccccn1 (stereo not shown) | 4.15
79 | COc1ccccc1CNS(=O)(=O)c1c(C)noc1C | 13.2
80 | O=C(Cn1cc(C(F)(F)F)cc(Cl)c1=O)Nc1cccc(S(=O)(=O)N2CCCCC2)c1 | 4.9
81 | Cc1cc(C)c2c(CN3CCOCC3)cc(=O)oc2c1 | -7.28
82 | C/C(=N\NC(=S)NCc1ccccc1)c1ccc(Cl)cc1 | -2.11
83 | Nc1ncnc(Nc2cccc(F)c2)n1 | -0.107
84 | CCCn1c(=S)[nH]c2cc(C(=O)N(CCO)Cc3ccccc3)ccc2c1=O | 0.462
85 | COc1ccccc1-c1ccc(SCC(=O)NCCc2ccccc2)nn1 | -38.9
86 | CCc1nnc(NC(=O)[C@@H](NC(=O)c2cc(OC)cc(OC)c2)C(C)C)s1 | 18.1
87 | COCCCN(C(=O)Cc1csc(-c2cccc(Cl)c2)n1)c1c(N)n(Cc2ccccc2)c(=O)[nH]c1=O | -48.5
88 | Cc1ccccc1N(C(=O)c1csnn1)C(C(=O)NC1CCCC1)c1ccncc1 (stereo not shown) | 4.31
